Data reported in PubChem BioAssay (NCI).
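Five compound concentrations were applied to cells in 96-well plates for 48 hours; endpoints were derived by simple linear interpolation of the resulting dose-response curve. GI50 marks 50% less growth. The concentration for full growth arrest is given as TGI.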

The compounds below were run on NCI-H322M lung (assay: NCI anticancer screen, dose series, 48 h).

Question: Which TGI does the source give for CNC(=O)Nn1c(SC)nc2ccccc21 here?
Answer: Its TGI is greater than 100 µM.

Question: For CC(=O)Nc1ccc(S(=O)(=O)N/N=C/c2cc(I)cc([N+](=O)[O-])c2O)cc1, which TGI is on record?
Answer: Its TGI is greater than 100 µM.

Question: How did the TGI turn out when Cn1c(=O)oc2cc(C(=O)CN3CCN(Cc4ccc5c(c4)OCO5)CC3)c(Cl)cc21 was run?
Answer: Its TGI is greater than 100 µM.

Question: Which TGI does the source give for CCCCCCCCOP(=O)(O)OP(=O)(O)OCC1OC(n2ccc(N)nc2=O)C(O)C1O (centres undefined) here?
Answer: Its TGI is greater than 100 µM.

Question: What does the source list for O=C(NC(=S)Nc1ccc(-c2nc3ccccc3[nH]2)cc1)c1ccc2ccccc2c1?
Answer: GI50: 4.11 µM; TGI: > 100 µM

Question: Which TGI does the source give for O=C1CCN(CCC(F)(F)C(F)(F)C(F)(F)C(F)(F)F)C(=S)N1 here?
Answer: The TGI was greater than 100 µM.

Question: How did the TGI turn out when O=c1[nH]ncc2[nH]c(-c3ccccc3)cc12 was run?
Answer: Its TGI is greater than 100 µM.

Question: How did the TGI turn out when O=C(CSc1nc(-c2ccccc2)c(-c2ccccc2)[nH]1)N/N=C/c1ccc([N+](=O)[O-])cc1 was run?
Answer: Its TGI is 51 µM.

Question: Cc1cccc2c1NC(=O)[C@@H](NC(=O)[C@H](CCC(F)(F)F)[C@H](CCC(F)(F)F)C(N)=O)N=C2c1cccc(F)c1 was tested. Which GI50 did it give?
Answer: Its GI50 is greater than 100 µM.

Question: And the TGI?
Answer: Its TGI is greater than 100 µM.

Question: N#C/C(=C\c1ccc([N+](=O)[O-])cc1)n1nnc2cc(F)c(F)cc21 was tested. Which GI50 did it give?
Answer: Its GI50 is 2.17 µM.

Question: And the TGI?
Answer: The TGI was 6.13 µM.

Question: For CSc1nc(SC)c2c(C)cn(Cc3ccccc3)c2n1, which TGI is on record?
Answer: Its TGI is greater than 100 µM.

Question: For COc1ccc2c(c1)OC(N)=C(C#N)C2c1ccc(F)c(F)c1 (centres undefined), which GI50 is on record?
Answer: The GI50 was 1.89 µM.

Question: What about the TGI of the same compound?
Answer: The TGI was greater than 100 µM.

Question: Which TGI does the source give for COc1ccc(C(=O)/C=C/c2ccc(OCC(=O)N3CCN(c4ccccc4)CC3)cc2)cc1OC here?
Answer: Its TGI is greater than 10 µM.

Question: Which TGI does the source give for O=C(Nn1c(-c2ccccc2)nc2ccccc2c1=O)c1ccc([N+](=O)[O-])cc1 here?
Answer: Its TGI is greater than 100 µM.

Question: For CO[C@@H]1C[C@H]2[C@@H]3CC[C@H]([C@@H](C)COC(C)=O)[C@@]3(C)CC[C@@H]2[C@@]2(C)CC[C@H]3C[C@]312, which TGI is on record?
Answer: Its TGI is 34.3 µM.

Question: CCOc1ccc(N=C2NC(=O)C(CC(=O)Nc3ccc(Cl)cc3Cl)S2)cc1 (centres undefined) was tested. Which TGI did it give?
Answer: The TGI was greater than 100 µM.

Question: For C#CCOCCCC(=O)O, which TGI is on record?
Answer: Its TGI is greater than 100 µM.

Question: Which GI50 does the source give for ClCCN(CCCl)c1ccc(OCc2ccccc2)cc1 here?
Answer: Its GI50 is 17.2 µM.

Question: And the TGI?
Answer: Its TGI is 64.4 µM.

Question: For CC(C)(C)OC(=O)CCC1NC(=O)[C@@H]2Cc3c([nH]c4ccccc34)C(c3ccccc3)N2C1=O (some centres undefined), which TGI is on record?
Answer: Its TGI is greater than 100 µM.

Question: With C=CCC1=C2CCCCC2CCC1=O (centres undefined) as the compound, how does the TGI read?
Answer: The TGI was greater than 100 µM.

Question: Cc1cc2c(=O)cc(-c3ccc(Cl)cc3Cl)oc2c(C(=O)O)c1C was tested. Which TGI did it give?
Answer: Its TGI is greater than 100 µM.

Question: With CN1CCN(C(=O)OCc2nc3c(N4CCOCC4)nc(-c4ccccc4)nc3n2C)CC1 as the compound, how does the GI50 read?
Answer: Its GI50 is 1.47 µM.

Question: And the TGI?
Answer: The TGI was 2.86 µM.

Question: For COc1cc2c3c(n(CCCNC(C)(C)CO)c(=O)c2cc1OC)-c1cc2c(cc1C3=O)OCO2, which GI50 is on record?
Answer: Its GI50 is 7.14 µM.

Question: What about the TGI of the same compound?
Answer: Its TGI is 53.8 µM.

Question: Which GI50 does the source give for COc1cc2cc(Oc3ccc(NC(=O)Nc4ccc(F)c(C(F)(F)F)c4)cc3)c(C)nc2cc1OCCN1CCOCC1 here?
Answer: Its GI50 is 3.38 µM.

Question: And the TGI?
Answer: Its TGI is 13.6 µM.

Question: For Cc1cc(C)c(S(=O)(=O)N(CCCCCCN)OCCCON(CCCCCCN)S(=O)(=O)c2c(C)cc(C)cc2C)c(C)c1, which TGI is on record?
Answer: Its TGI is 3.03 µM.

Question: Which TGI does the source give for Cc1ccc(S(=O)OC2c3ccccc3Cc3ccccc32)cc1 (centres undefined) here?
Answer: The TGI was 51 µM.

Question: O=C(O)CSc1nc2ccccc2[nH]1 was tested. Which TGI did it give?
Answer: Its TGI is greater than 100 µM.

Question: COc1ccc(/C=C2\N=C(N3CCOCC3)NC2=O)cc1 was tested. Which TGI did it give?
Answer: Its TGI is greater than 100 µM.

Question: With N#CC(NNC(=O)Cc1ccccc1)c1ccc(O)cc1 (centres undefined) as the compound, how does the TGI read?
Answer: The TGI was greater than 100 µM.

Question: N#CCC(=O)N/N=C(/C(=O)Nc1ccccc1)C1C(=O)N(c2ccccc2)N=C1N (centres undefined) was tested. Which TGI did it give?
Answer: The TGI was greater than 100 µM.

Question: COc1ccc2c(c1)C(=O)/C(=C/c1ccccc1)C2 was tested. Which TGI did it give?
Answer: Its TGI is greater than 100 µM.
